Source: paper PMC4336329 (PLoS ONE, 2015)
In all, about 310,000 compounds went through this assay and about 2,200 (0.71%) showed an effect of 50% or more. The effect is printed as a negative number. This is one part of the list.

molecular target: human ether-à-go-go-related gene (hERG) potassium channel (human, UniProt Q12809); test: primary screen, population patch clamp on CHO cells stably expressing hERG
Sequence (Q12809 whole entry, looked up): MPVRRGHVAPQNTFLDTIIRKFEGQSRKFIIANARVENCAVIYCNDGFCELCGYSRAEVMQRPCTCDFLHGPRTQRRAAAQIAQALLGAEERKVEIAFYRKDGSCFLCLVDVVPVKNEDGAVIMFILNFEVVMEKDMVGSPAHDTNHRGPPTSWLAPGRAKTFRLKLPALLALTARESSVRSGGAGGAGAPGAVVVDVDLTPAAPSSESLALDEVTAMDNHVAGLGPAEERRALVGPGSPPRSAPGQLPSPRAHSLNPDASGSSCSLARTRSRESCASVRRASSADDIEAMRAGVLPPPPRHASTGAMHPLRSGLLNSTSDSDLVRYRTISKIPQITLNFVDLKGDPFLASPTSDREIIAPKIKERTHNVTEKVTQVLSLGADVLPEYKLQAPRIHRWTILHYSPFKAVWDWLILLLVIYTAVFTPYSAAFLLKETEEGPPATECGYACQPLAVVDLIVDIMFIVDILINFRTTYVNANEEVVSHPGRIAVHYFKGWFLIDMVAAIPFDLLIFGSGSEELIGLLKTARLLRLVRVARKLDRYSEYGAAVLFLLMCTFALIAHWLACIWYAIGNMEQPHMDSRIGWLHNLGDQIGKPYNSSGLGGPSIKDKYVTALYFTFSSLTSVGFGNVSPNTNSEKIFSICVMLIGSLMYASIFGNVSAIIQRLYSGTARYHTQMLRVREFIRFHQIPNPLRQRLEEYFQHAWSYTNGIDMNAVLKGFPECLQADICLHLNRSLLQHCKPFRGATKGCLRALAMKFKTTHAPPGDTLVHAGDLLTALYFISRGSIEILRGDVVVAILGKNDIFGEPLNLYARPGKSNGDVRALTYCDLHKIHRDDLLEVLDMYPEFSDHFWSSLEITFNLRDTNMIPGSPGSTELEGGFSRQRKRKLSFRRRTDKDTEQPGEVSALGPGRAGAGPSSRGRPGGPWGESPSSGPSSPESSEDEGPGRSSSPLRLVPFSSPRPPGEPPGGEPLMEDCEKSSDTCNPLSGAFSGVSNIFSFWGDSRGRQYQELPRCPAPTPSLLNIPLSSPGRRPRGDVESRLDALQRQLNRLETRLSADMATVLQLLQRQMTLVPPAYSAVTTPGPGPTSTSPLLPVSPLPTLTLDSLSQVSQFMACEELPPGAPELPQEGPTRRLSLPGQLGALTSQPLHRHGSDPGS

| SMILES | hERG current change (%, negative = inhibition) at 1uM |
| --- | --- |
| COCCN1C(=O)C(CC(=O)Nc2ccc(C(C)=O)cc2)SC1=Nc1ccccc1 (centres unmarked) | 11% |
| Cl.c1ccc(SCCCCN2CCOCC2)cc1 | 9.91% |
| Cc1ccc(S(=O)(=O)N2CCN(c3ccnc4cc(Cl)ccc34)CC2)cc1C | 21.6% |
| Cc1cccc(OCC(=O)NNC(=O)Cn2c(=O)cnc3ccccc32)c1 | 12% |
| O=C(Nc1cccc(F)c1)Nc1ccc2c(c1)OCO2 | 12.8% |
| CCOc1ccc(CCNC(=O)C2CC=CCC2C(=O)OC(C)C)cc1OCC (centres unmarked) | 24.6% |
| CC(C)[C@H](CO)Nc1nc(NCc2ccc(S(N)(=O)=O)cc2)c2ncn(C(C)C)c2n1 | 14.1% |
| O=C(c1cccc(C(F)(F)F)c1)C1CCCN(Cc2ccc(OCCO)cc2)C1 (centres unmarked) | -18.2% |
| Cc1cc(C)c2c(CN3CCC(C)CC3)cc(=O)oc2c1C | 11.5% |
| Cc1ccc(-n2ncc3c2ncn2nc(-c4ccco4)nc32)c(C)c1 | 3.02% |
| CSC1CCCCC1(O)CSc1nc2c(cc1C#N)CCCC2 (centres unmarked) | 3.46% |
| CCCCC(=O)Nc1cc(C)c(NC(=O)c2ccco2)cn1 | 14.6% |
| CC1=C(C(=O)Nc2ccc(F)cc2)C(c2ccncc2)C2=C(CCCC2=O)N1 (centres unmarked) | -12.9% |
| COc1ccc(/C=N/NC(=O)c2cc(C)n(-c3ccccc3)c2C)cc1OC | 2.73% |
| CC(C)CCn1c(SCc2ccc(Cl)cc2)nc2c1c(=O)[nH]c(=O)n2C | 12.9% |
| C[C@H]1CCC(=O)N([C@H](COc2ccccc2)Cc2ccccc2)CC1 | 1.3% |
| O=C(c1ccco1)N1CCN(CC(=O)N2CCCc3c2c(=O)oc2ccc(O)cc32)CC1 | 3.45% |
| CCn1c(/C=C/c2ccccc2)nc2ccccc2c1=O | 14.2% |
| CC(C)(C)C(=O)NC1CCN(S(C)(=O)=O)CC1 | 7.82% |
| CCOC(=O)C1=NN(c2ccc(F)cc2)C2=NC(C)=C(C(=O)OC)C(c3cccs3)N12 (centres unmarked) | -1.06% |
| CCOc1ccc(-c2nc(-c3cccnc3)no2)cc1OCC | 8.67% |
| CCCCCCCCNC(=O)c1cnccn1 | 3.79% |

| SMILES | hERG current change (%, negative = inhibition) at 1uM |
| --- | --- |
| Cc1ccc(NC(=O)CSc2nnc3n2CCCCC3)cc1 | 8.56% |
| Cc1ccc(/C=N/Nc2nncc(-c3ccccc3)n2)o1 | 11.9% |
| CN(C)/C(=N\O)c1c(Cl)cccc1Cl | 9.68% |
| CC(=O)NC(=S)Nc1ccc(NC(=O)c2cccnc2Cl)cc1 | 9.84% |
| Cc1ccc(CS(=O)(=O)c2cn(CC(=O)Nc3ccon3)c3ccccc23)cc1 | 14.4% |
| O=C(Nc1cccc(Cl)c1)N1CCN(C2c3ccccc3-c3ccccc32)CC1 | 8.43% |
| Cn1c(SCC(=O)Nc2sc3c(c2C#N)CCC3)nnc1C1COc2ccccc2O1 (centres unmarked) | 8.41% |
| COCCNC(=O)C(c1ccc(C)cc1)N(Cc1ccco1)C(=O)CCC(=O)Nc1ccccn1 (centres unmarked) | 20% |
| O=C(COc1ccccc1C(=O)N/N=C\c1ccc(O)c(O)c1)N/N=C/c1ccc(O)c(O)c1 | 2% |
| Cc1ccc(SCC(=O)N2CCc3ccccc32)cc1 | 12.4% |
| CCOC(=O)N1CCC(NC(=O)CS(=O)(=O)Cc2nc(-c3cccc(Cl)c3)oc2C)CC1 | 15.6% |
| CCOc1ccc(-c2noc(CCC(=O)NCC3CCCO3)n2)cc1OC (centres unmarked) | 16.3% |
| COc1ccccc1NC(=O)Nc1ccc(S(=O)(=O)Nc2onc(C)c2C)cc1 | 10.4% |
| Cc1ccc(C(=O)NNC(=O)c2ccccc2-n2cccc2)cc1 | -2.92% |
| O=C(CSc1ncnc2nc[nH]c12)Nc1ccc(Br)cc1Cl | 8.12% |
| FC(F)(F)c1cccc(Cc2noc(CN3CCCC3)n2)c1 | 15.3% |
| C=CCOC(=O)CSCC(NC(=O)OC(C)(C)C)C(=O)OCC (centres unmarked) | 12.4% |
| CCOC(=O)C1CCN(C(=O)COC(=O)c2nn(C)c(=O)c3ccccc23)CC1 | 5.06% |
| C=CCOc1c(Br)cc(/C=N/NC(=O)Cc2ccc(C(F)(F)F)cc2[N+](=O)[O-])cc1OC | 15.4% |
| O=c1c2ccccc2oc2ccc(Oc3ccccc3)cc12 | 11.5% |
| O=C(c1cccc(OCc2ccccc2)c1)N1CCOCC1 | 3.46% |
| COCCN(CCOC)c1nc(-c2ccc(Cl)cc2)nc2ccccc12 | 4.14% |
